About 220 (0.56%) of roughly 39,000 compounds showed activity. This is one part of the list.
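Note: static incubation at 37 °C against the wild-type strain, values averaged over two biological replicates.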

The experiment concerns Escherichia coli K-12 BW25113. As to the kind of experiment: relative growth (OD600 normalised to plate interquartile mean) (fraction); higher = less growth inhibition, active = 0.2 or less. As to conditions: 50 µM; LB; incubation time: overnight (16-24 h).
As for `COc1ccc(NC(=O)Nc2ccc3c(c2)C(=O)N([C@H](C)CO)C[C@@H](C)[C@H](CN(C)S(=O)(=O)c2ccc(Cl)cc2)OCCCC[C@H](C)O3)cc1`, the relative growth was inactive: 1.01.

For `COC1=C(CC=C(C)C)C(=O)c2ccccc2C1=O`, the relative growth was inactive: 0.908.

Turning to `Cc1ccc(S(=O)(=O)Nc2ccc3c(c2)CC(=O)N([C@H](C)CO)C[C@@H](C)[C@H](CN(C)Cc2ccc(Oc4ccccc4)cc2)O3)cc1`, the relative growth is inactive: 0.994.

`C[C@H](CO)N1C[C@H](C)[C@@H](CN(C)C(=O)Nc2ccccc2)Oc2c(NC(=O)c3cnccn3)cccc2C1=O`: the relative growth is inactive: 1.03.

Regarding `Cc1ccc(S(=O)(=O)Nc2ccc3c(c2)CC(=O)N([C@H](C)CO)C[C@@H](C)[C@H](CN(C)C(=O)Nc2cccc4ccccc24)O3)cc1`, the relative growth is inactive: 1.01.

Take `CC(C)CC#Cc1ccc2c(c1)O[C@H](CN(C)C(=O)C1CCOCC1)[C@H](C)CN([C@@H](C)CO)S2(=O)=O`: the relative growth was inactive: 0.998.

On to `C[C@H]1CN([C@@H](C)CO)S(=O)(=O)c2ccc(C#CC3CC3)cc2O[C@H]1CN(C)Cc1cccc(F)c1`, for which the relative growth was inactive: 1.01.

`CCCCOCCOc1ccc(-c2ccc3c(c2)/C=C(/C(=O)Nc2ccc([S@@](=O)Cc4cncn4CCC)cc2)CCCN3CC(C)C)cc1`: the relative growth is inactive: 0.989.

`CCc1nc2ccc(C(=O)Nc3ccc4c(c3)OCC(=O)N4)cn2c1N(CC)Cc1cccc(Br)c1`: the relative growth is inactive: 1.01.

Turning to `CC(C)NC(=O)N(C)C[C@H]1Oc2c(NC(=O)NC3CCCCC3)cccc2C(=O)N([C@@H](C)CO)C[C@@H]1C`, the relative growth was inactive: 1.

Take `C[C@H](CO)N1C[C@H](C)[C@H](CN(C)Cc2ccc(C(=O)O)cc2)Oc2ccc(NC(=O)Nc3ccc(C(F)(F)F)cc3)cc2CC1=O`: the relative growth is inactive: 0.977.

For the compound `C[C@@H]1CN([C@@H](C)CO)C(=O)c2cccc(NC(=O)C3CC3)c2O[C@@H]1CN(C)S(=O)(=O)c1ccc(Cl)cc1`, the relative growth is inactive: 1.01.

For `CC(C)NC(=O)N(C)C[C@@H]1Oc2ncc(-c3ccc(C(=O)N(C)C)cc3)cc2C(=O)N([C@@H](C)CO)C[C@H]1C`, the relative growth was inactive: 1.01.

For the compound `C[C@@H]1CCCCO[C@@H](CN(C)S(=O)(=O)c2ccc(F)cc2)[C@H](C)CN([C@@H](C)CO)C(=O)c2cc(NC(=O)Nc3ccc4c(c3)OCO4)ccc2O1`, the relative growth is inactive: 1.04.

Consider `CN1CCN(C(=O)[C@@H]2[C@@H](C(=O)O)[C@H]3CC[C@H]2O3)CC1`, for which the relative growth was inactive: 0.99.

For `C[C@@H]1CN([C@H](C)CO)S(=O)(=O)c2ccc(-c3ccncc3)cc2O[C@@H]1CN(C)S(=O)(=O)c1ccccc1F`, the relative growth was inactive: 1.02.

On to `C[C@H]1CN([C@@H](C)CO)C(=O)Cc2cc(NC(=O)C3CC3)ccc2O[C@H]1CN(C)S(=O)(=O)c1cccs1`, for which the relative growth was inactive: 1.01.

With `COCC#Cc1cnc2c(c1)C(=O)N([C@H](C)CO)C[C@@H](C)[C@H](CN(C)C(=O)Nc1cc(F)ccc1F)O2`, the relative growth is inactive: 1.02.

Consider `C#CCN1C(=O)C[C@H](O)C1=O`, for which the relative growth is inactive: 1.

For `C[C@H](CO)N1C[C@H](C)[C@@H](CN(C)S(C)(=O)=O)Oc2ccc(NC(=O)NC3CCCCC3)cc2CC1=O`, the relative growth is inactive: 0.975.

For the compound `C[C@@H]1CCCCO[C@@H](CN(C)S(=O)(=O)c2ccc(F)cc2)[C@H](C)CN([C@H](C)CO)C(=O)c2cc(NC(=O)C3CCCCC3)ccc2O1`, the relative growth was inactive: 1.02.

Take `C[C@@H]1CN([C@H](C)CO)C(=O)c2cccc(NC(=O)C3CCCCC3)c2O[C@H]1CN(C)S(=O)(=O)c1cn(C)cn1`: the relative growth was inactive: 1.02.

For the compound `COc1cc2c(=O)c(-c3ccc4c(c3)OCO4)coc2c2c1OC(C)(C)C=C2`, the relative growth was inactive: 0.849.

On to `CC(=N)NCCC[C@H](N)C(=O)O`, for which the relative growth was inactive: 0.983.

As for `C[C@@H]1CN([C@H](C)CO)C(=O)c2cccc(NS(=O)(=O)c3cn(C)cn3)c2O[C@@H]1CN(C)CC1CCCCC1`, the relative growth is inactive: 0.98.

Regarding `CCCNC(=O)N(C)C[C@H]1Oc2cc(-c3ccccc3F)ccc2S(=O)(=O)N([C@@H](C)CO)C[C@@H]1C`, the relative growth is inactive: 1.03.

With `Cc1noc(C)c1S(=O)(=O)N(C)C[C@@H]1Oc2ccc(NC(=O)CCCN(C)C)cc2C(=O)N([C@@H](C)CO)C[C@@H]1C`, the relative growth is inactive: 0.886.

`CCCN1C(C)=C(C(=O)OC)[C@@H](c2cccc([N+](=O)[O-])c2)C(C(=O)ON2CCC(c3ccccc3)(c3ccccc3)CC2)=C1C`: the relative growth is inactive: 0.982.

On to `Cn1cnc(S(=O)(=O)N2C[C@H](O)COC[C@@H]3O[C@@H](CC(=O)NCc4cc(F)cc(F)c4)CC[C@H]32)c1`, for which the relative growth was inactive: 1.01.

Take `C[C@H](CO)N1C[C@H](C)[C@H](CN(C)C(=O)Nc2cccc3ccccc23)Oc2c(NS(=O)(=O)c3ccc(F)cc3)cccc2C1=O`: the relative growth was inactive: 0.979.

Consider `CCCCC(=O)N1c2ccccc2[C@H](Nc2ccccc2)C[C@@H]1C`, for which the relative growth was inactive: 0.911.

`C[C@H]1CN([C@@H](C)CO)C(=O)CCCn2nncc2CO[C@@H]1CN(C)C(=O)C1CC1`: the relative growth was inactive: 0.968.

Turning to `Cc1noc(C)c1NC(=O)Nc1ccc2c(c1)C(=O)N([C@@H](C)CO)C[C@@H](C)[C@H](CN(C)C(=O)Nc1ccc(C(F)(F)F)cc1)OCCCC[C@H](C)O2`, the relative growth was inactive: 1.02.

`CCOC(=O)OC[C@@H]1[C@@H]2NC(=O)N(C)[C@@]1(COC(=O)NCCCCCC(=O)NO)Oc1ccccc12`: the relative growth is inactive: 1.01.

Take `C[C@@H]1CCCCO[C@H](CN(C)Cc2ccccc2)[C@@H](C)CN([C@@H](C)CO)C(=O)c2cc(NC(=O)Nc3ccccc3)ccc2O1`: the relative growth was inactive: 1.01.

Regarding `O=C(CN1CCOCC1)N[C@@H]1CC[C@@H](CCNC(=O)Nc2cc(F)ccc2F)O[C@@H]1CO`, the relative growth was inactive: 0.988.

With `C[C@H]1CN([C@@H](C)CO)C(=O)c2cc(NC(=O)C3CC3)ccc2O[C@@H]1CN(C)Cc1ccc2c(c1)OCO2`, the relative growth was inactive: 0.998.

On to `C[C@@H]1CN([C@H](C)CO)C(=O)c2cccc(NC(=O)c3cnccn3)c2O[C@H]1CN(C)S(=O)(=O)c1cn(C)cn1`, for which the relative growth is inactive: 1.01.

With `C[C@@H]1CN([C@H](C)CO)C(=O)c2cccc(NS(=O)(=O)c3cccs3)c2O[C@H]1CN(C)S(=O)(=O)c1ccc(F)cc1`, the relative growth was inactive: 0.822.

The values are drawn from the supplement of paper PMC9446081.
